Source: the supplement of paper PMC11417369
± gives the standard deviation of the averaged measurements. This is one part of the list.

system: PfAP2-LT AP2 domain (GST-tagged); experiment: gcPBM binding intensity (ln(normalized median fluorescence intensity)); higher = stronger DNA binding
Procedure, shortened: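 Binding intensity is the highest Masliner-normalised natural-log median intensity over replicate spots in either probe orientation. To obtain it, GST-tagged P. falciparum DNA-binding domains made in E. coli were incubated for 1 h on an Agilent 4 × 180k array of primer-extended double-stranded 36-bp intergenic genomic probes plus negative controls. Detection used Alexa488 anti-GST antibody with scanning at 488 nm.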

| Sequence | gcPBM binding intensity (ln) |
| --- | --- |
| GACTGAACAACATAATGTACATTTATAAGTATATAT [XGTACX_site3813] | 8.95 ± 0.4 |
| TATATATTATATATATGTACTTATTCATATATATAA [XGTACX_site3860] | 8.64 ± 0.37 |
| CTTTAATATATTTAAGTGCAAAACTAATATGTAAAG | 8.61 ± 0.48 |
| AAAGAAAAAGAAAAAGAAAAAATAAAATAAAATAAA [CACACA_negctrl_site872] | 8.43 ± 0.54 |
| TATTTAAAAACAAAAAGTACTAATATATATTTATAC [XGTACX_site1422] | 8.39 ± 0.46 |
| ATTACCAACAGATCTTGTACATATTAAAGCATCTTA [XGTACX_site2361] | 8.62 ± 0.43 |
| CAAATACACCAACACACACACACAAAAAAAAAAAAA [CACACA_site514] | 9.99 ± 0.38 |
| TAAGTACGACTTGACACACATACACATATATATATA [CACACA_site1286] | 9.46 ± 0.26 |
| TGAAAGAATAGAATGAGTACTAATTTAAATTACACT [XGTACX_site1120] | 8.71 ± 0.52 |
| TTCTTTATATATTTTTGTACATATTTATTTTTAGAG [XGTACX_site6757] | 8.79 ± 0.52 |
| TTGATTTCATTTTAAGTGCATAACTAATATTATATA [GTGCAC_site9713] | 8.48 ± 0.42 |
| ATATACAAAGAAGCAGTGCATATTTTCTTATTTATG [GTGCAC_site9567] | 8.82 ± 0.36 |
| TCTTTGGTAATATATATGTATAAATATAAATATATA [CACACA_negctrl_site1566] | 8.27 ± 0.41 |
| ATATATATATATGTTAGTACATAACAAGTGTGCATA [XGTACX_site1527] | 9.32 ± 0.21 |
| ATAAAACAAGCAAATCGTACAAAAGGATAATATATA [XGTACX_site5592] | 9.15 ± 0.54 |
| AAAAAAAAAAAAAACACACACACACCCATACCCATA [CACACA_site5577] | 10.215 ± 0.0071 |
| ATGTATGGTTTATATGTTCATTTGTTCACCTATTTA [CACACA_negctrl_site1533] | 9.21 ± 0.51 |
| TTAGGTAGAAAAAAGACACACACATTATATATATAT [CACACA_site8016] | 9.45 ± 0.23 |
| ATATATATTTAAGAGGGTACAAAAATTTATGAGCAT [XGTACX_site6156] | 8.77 ± 0.43 |

| Sequence | gcPBM binding intensity (ln) |
| --- | --- |
| TATACATATTTATACACACACACATATATTTATATA [CACACA_site6727] | 9.565 ± 0.078 |
| AAAAAATAAAAAATATGTACACATTCAAAATTTTAC [XGTACX_site8479] | 8.8 ± 0.5 |
| TGTGCTTATCCTAACACACACAACATATAAGAAAAA [CACACA_site3319] | 9.08 ± 0.42 |
| AAAAAGAAAAAAAACACACACAAATATAAATAAATA [CACACA_site1183] | 9.24 ± 0.49 |
| ATATATATATATATATGTACATATTACATTACTTAT [XGTACX_site749] | 9.51 ± 0.33 |
| GATAAAATGAGACCAGTGCATTATTAGTTGTACACC | 9.04 ± 0.43 |
| TTTTTTGCTAAGTGTACACAAATGTTTATTAATTTA [CACACA_site5859] | 8.62 ± 0.43 |
| GTAATATTAAAATATACACACATAGAATATATATAT [CACACA_site4391] | 9.07 ± 0.31 |
| ATAATCATAAAATAAACACACATATATAAATATATT [CACACA_site276] | 8.94 ± 0.38 |
| TTTTTTATATTGTGATGTACAAATTTTAAAATGTAG [XGTACX_site1875] | 8.4 ± 0.4 |
| GTGTGGAGTTACAAAGAGGAGAACCTCACAGTAATC [CACACA_negctrl_site527] | 8.92 ± 0.55 |
| TTACTCTTTATATAATGTACATATATATATATATTA [XGTACX_site2624] | 8.84 ± 0.43 |
| AAATTCGTTATAAAAACATGCAACGATCAACATTGT [TGCATGCA_site844] | 8.79 ± 0.4 |
| TTATGTGATAAAAAAAAAATACAACAAAGTTAAATA [GTGCAC_negctrl_site36] | 8.58 ± 0.48 |
| ATATATATATATATAATACACACTTATGAAATGTCT [CACACA_site1827] | 9.22 ± 0.17 |
| TATAAAGGTTGGTACTGTACAATATAAGAAAAAAAA [XGTACX_site435] | 8.73 ± 0.55 |
| ATCATTCATTTAACAACACACAACATATTTATCATA [CACACA_site1041] | 8.94 ± 0.42 |
| AAATAGTTCATAAAAAGTACAAAATTTTTATCCGTA [XGTACX_site2796] | 8.64 ± 0.52 |
| TATATATTATATAAGAGTACATATAATTATAGTTTT [XGTACX_site5039] | 8.49 ± 0.34 |

| Sequence | gcPBM binding intensity (ln) |
| --- | --- |
| TTTATTTTGACAGATTGTACACTTTATACATGTTTT [XGTACX_site2356] | 9.1 ± 0.56 |
| AATCTATATTAATACACACACACATATATTTATATA [CACACA_site7732] | 9.54 ± 0.28 |
| TGAAAAAAGAAAAATACACACATATAACATAATATA [CACACA_site7126] | 9.1 ± 0.3 |
| GTATATATTTCCAGAAGTACTTATTTTTATGTATGT [XGTACX_site4079] | 8.92 ± 0.4 |
| TTATATTTATTGATATGTACATATTATAATTAATTA [XGTACX_site586] | 8.52 ± 0.41 |
| TTTTAATATTTTGCCTGTACATAAAAGTGAGAAGAT [XGTACX_site2503] | 8.73 ± 0.54 |
| AAAAATGCCAGAAAACGTACTCGGATTTTCTAATAT [XGTACX_site6552] | 8.71 ± 0.49 |
| TGATTACATATGATGTGTACCTAATTTTGTTTACAC [XGTACX_site7032] | 9.14 ± 0.51 |
| ACTATATATATAAGTGCATGTTCATTATACCTAAAG [TGCATGCA_site696] | 8.83 ± 0.42 |
| AGTAAATTATATATCTGTACATATATATATGTGTAT [XGTACX_site5519] | 9.04 ± 0.28 |
| TTTTAAAAAAATATAATACACACCAAAAATATGCAC [CACACA_site2131] | 8.86 ± 0.35 |
| AAAAATTCATTTTTATGTACGTACAAATTCTTCGTT [XGTACX_site2471] | 8.7 ± 0.57 |
| CTCACAAATGAATACACACAAACATATATATTTATA [CACACA_site1620] | 9.08 ± 0.38 |
| TGGAATAATACGCGTACACACATATAAATATTAATA [CACACA_site6211] | 9.26 ± 0.44 |
| ATATAATGGCTAAATAGTACAATATAATATTTTTTA [XGTACX_site8922] | 8.64 ± 0.44 |
| ACACATGAATATTGTAGTACGGCAATTAATATAATA [XGTACX_site4589] | 9.01 ± 0.4 |
| AGAAAGGAAAAAACCTCACACATGCTTTTAATAGTA [CACACA_site4602] | 8.71 ± 0.43 |
| AAAAAAATATAAATACGTACATATATATATATATAT [XGTACX_site432] | 9.79 ± 0.17 |
| CTATTCTATTTTTATTGTACATATATATAATTTGAA [XGTACX_site389] | 8.66 ± 0.42 |
